By IC50 is meant the dose at which the fit gives 50% viability; where the fit passes the top or lowest dose, that dose stands as a limit. AUC is the area under the same curve over the 256-fold range up to the top dose, as a fraction; it is 1 without any effect and falls as sensitivity rises. For part of these data: Any top dose called inferred is not printed in the source and was worked back from the curve model. For part of these data: An entry number marks a drug with two screens in the source, which often give different values.
Columns and labels:
Assay in all cases: Viability of human cancer cell lines after 72 h of drug (GDSC screen)
Pyrimethamine = compound: CCc1nc(N)nc(N)c1-c1ccc(Cl)cc1 [Pyrimethamine]; settings: top dose 20 µM; top dose inferred
Description: (§1)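 Human cancer cell lines in 384-well plates, medium with 10% serum, drug for 72 h over a 256-fold dose range (nine 2-fold or five 4-fold steps up to the top dose). Adherent lines were fixed and stained with the nucleic acid dye Syto60, suspension lines read with resazurin; signal relative to control wells, capped at 0 and 100%. One two-parameter sigmoid per drug and line, fitted in a mixed model over all curves with the slope shared within a line.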

AZD-0530 = compound: CN1CCN(CCOc2cc(OC3CCOCC3)c3c(Nc4c(Cl)ccc5c4OCO5)ncnc3c2)CC1 [AZD-0530]; settings: top dose 2 µM
Description: as §1

TPCA-1 = compound: NC(=O)Nc1sc(-c2ccc(F)cc2)cc1C(N)=O [TPCA-1]; settings: top dose 20 µM
Description: as §1

Epothilone B = compound: C/C(=C\c1csc(C)n1)[C@@H]1C[C@@H]2O[C@]2(C)CCC[C@H](C)[C@H](O)[C@@H](C)C(=O)C(C)(C)[C@@H](O)CC(=O)O1 [Epothilone B]; settings: top dose 0.032 µM; top dose inferred
Description: as §1

PHA-793887 = compound: CC(C)CC(=O)Nc1n[nH]c2c1CN(C(=O)C1CCN(C)CC1)C2(C)C [PHA-793887]; settings: top dose 10.24 µM
Description: as §1

Y-39983 = compound: C[C@@H](N)c1ccc(C(=O)Nc2ccnc3[nH]ccc23)cc1 [Y-39983]; settings: top dose 20 µM; top dose inferred
Description: as §1

PLX4720 = compound: CCCS(=O)(=O)Nc1ccc(F)c(C(=O)c2c[nH]c3ncc(Cl)cc23)c1F [PLX4720]; settings: top dose 10 µM
Description: as §1

[1] = screen: GDSC drug entry 1371, top dose inferred

Cell Line | AUC (Pyrimethamine) | IC50 (Pyrimethamine) [µM] | AUC (AZD-0530) | IC50 (AZD-0530) [µM] | AUC (TPCA-1) | IC50 (TPCA-1) [µM] | AUC (Epothilone B) | IC50 (Epothilone B) [µM] | AUC (PHA-793887) | IC50 (PHA-793887) [µM] | AUC (Y-39983) | IC50 (Y-39983) [µM] | AUC (PLX4720; screen: GDSC drug entry 1036) | IC50 (PLX4720; screen: GDSC drug entry 1036) [µM] | AUC (PLX4720; [1]) | IC50 (PLX4720; [1]) [µM]
C2BBe1 (large intestine, adherent) | 0.981 | > 20 | 0.827 | 1.45 | 0.831 | 15.1 | 0.716 | 0.00898 | 0.886 | > 10.2 | 0.985 | > 20 | 0.95 | > 10 | 0.984 | > 10
CAS-1 (glioma, adherent) | 0.976 | > 20 | 0.974 | > 2 | 0.934 | > 20 | 0.772 | 0.0171 | 0.802 | 7.35 | 0.979 | > 20 | 0.969 | > 10 | 0.972 | > 10
CCRF-CEM (lymphoblastic leukaemia, suspension) | 0.819 | 9.13 | 0.988 | > 2 | 0.565 | 1.82 | 0.579 | 0.00317 | 0.486 | 0.591 | 0.799 | 7.87 | 0.939 | > 10 | 0.981 | > 10
CHP-126 (neuroblastoma, suspension) | 0.931 | > 20 | 0.974 | > 2 | 0.936 | > 20 | 0.841 | 0.023 | 0.883 | > 10.2 | 0.956 | > 20 | 0.94 | > 10 | 0.981 | > 10
CMK (acute myeloid leukaemia, suspension) | 0.63 | 2.68 | 0.991 | > 2 | 0.184 | 0.174 | 0.449 | 0.00149 | 0.516 | 0.703 | 0.868 | 13.7 | 0.971 | > 10 | 0.964 | > 10
COLO-320-HSR (large intestine, suspension) | 0.666 | 3.38 | 0.977 | > 2 | 0.711 | 4.48 | 0.631 | 0.00435 | 0.984 | > 10.2 | 0.957 | > 20 | 0.989 | > 10 | 0.985 | > 10
COLO-668 (small cell lung carcinoma, adherent) | 0.959 | > 20 | 0.989 | > 2 | 0.862 | 17.1 | 0.865 | 0.0283 | 0.977 | > 10.2 | 0.949 | > 20 | 0.977 | > 10 | 0.988 | > 10
COLO-684 (endometrium, suspension) | 0.732 | 6.28 | 0.982 | > 2 | 0.832 | 15 | 0.671 | 0.00637 | 0.779 | 4.7 | 0.935 | > 20 | 0.969 | > 10 | 0.983 | > 10
COLO-824 (breast, adherent) | 0.982 | > 20 | 0.988 | > 2 | 0.813 | 11.1 | 0.83 | 0.0207 | 0.935 | > 10.2 | 0.955 | > 20 | 0.987 | > 10 | 0.987 | > 10
COLO-829 (melanoma, adherent) | 0.581 | 2.31 | 0.959 | > 2 | 0.92 | > 20 | 0.955 | > 0.032 | 0.892 | > 10.2 | 0.975 | > 20 |  |  | 0.792 | 7.17
COR-L95 (small cell lung carcinoma, adherent) | 0.892 | > 20 | 0.985 | > 2 | 0.948 | > 20 | 0.964 | > 0.032 | 0.795 | 5.64 | 0.926 | > 20 | 0.987 | > 10 | 0.985 | > 10
CP66-MEL (melanoma, adherent) | 0.979 | > 20 | 0.984 | > 2 | 0.979 | > 20 | 0.754 | 0.0121 | 0.973 | > 10.2 | 0.98 | > 20 | 0.867 | > 10 | 0.852 | 9.44
CPC-N (small cell lung carcinoma, suspension) | 0.845 | 16.5 | 0.973 | > 2 | 0.852 | 17.8 | 0.739 | 0.0104 | 0.588 | 1.14 | 0.947 | > 20 | 0.928 | > 10 | 0.932 | > 10
CTV-1 (acute myeloid leukaemia, suspension) | 0.628 | 2.61 | 0.383 | 0.064 | 0.718 | 4.45 | 0.659 | 0.00502 | 0.501 | 0.642 | 0.923 | > 20 | 0.975 | > 10 | 0.992 | > 10
CW-2 (large intestine, adherent) | 0.987 | > 20 | 0.989 | > 2 | 0.925 | > 20 | 0.989 | > 0.032 | 0.988 | > 10.2 | 0.966 | > 20 | 0.983 | > 10 | 0.988 | > 10
Calu-6 (lung adenocarcinoma, adherent) | 0.944 | > 20 | 0.963 | > 2 | 0.86 | > 20 | 0.69 | 0.00741 | 0.828 | 7.6 | 0.952 | > 20 | 0.984 | > 10 | 0.926 | > 10
D-263MG (glioma, adherent) | 0.971 | > 20 | 0.983 | > 2 | 0.975 | > 20 | 0.819 | 0.0234 | 0.983 | > 10.2 | 0.955 | > 20 | 0.975 | > 10 | 0.981 | > 10
